According to PubChem BioAssay AID1508623 (National Center for Advancing Translational Sciences (NCATS), 2021):
In all, about 48,000 compounds went through this assay and about 450 (0.94%) were called active. Inconclusive results (about 19%) are left out. Calls come from the whole dose curve; as a rule, active = well fitted inhibition curve with a large enough effect; inconclusive = small, poorly fitted or top-dose-only effect; inactive = no such curve, though single readings can be large or run the other way. The list shows a part of the results.

Test: Primary qHTS for Identification of Small Molecule Inhibitors of Huntingtin Promoter Activity; note: nearly all actives have a fitted effect of over 50% in size
Conditions: HEK293 HTT promoter firefly luciferase reporter (activity 0% = vehicle and -100% = no light), 24 h; series mostly up to 57.5 µM; activity change, negative = inhibition: at the top concentration
Method in brief: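 Firefly luciferase readout (Dual-Glo, 10 min RT) after 24 h, 37 °C compound exposure (final up to 57.5 uM) of HEK293 reporter cells cultured 24 h beforehand; PTC124 at 50 uM final as control inhibitor; activity scaled vehicle 0%, zero RLU -100%.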
Potency is the fitted concentration of half-maximal effect.

SMILES | activity change, negative = inhibition | Potency
O=C(CSc1ncc(S(=O)(=O)c2ccc(Br)cc2)c(=O)[nH]1)NCc1ccccc1Cl | inactive: -15.5% | 
COc1ccc(-c2cc(C(=O)Oc3ccc(Cl)cc3)c3ccccc3n2)cc1 | inactive: 26.5% | 
CCCCn1cnc2cc(NC(=O)c3cc(OC)c(OC)c(OC)c3)ccc21 | inactive: -10.3% | 
CCC(=O)N1CCc2cc(S(=O)(=O)NC(Cc3ccccc3)C(=O)Nc3ccc(Cl)cc3)ccc21 (stereo unspecified) | inactive: -28.5% | 
CCCC(=O)Nc1c(C(=O)N2CCN(c3ccccc3)CC2)oc2ccccc12 | inactive: -24.8% | 
CCc1ccccc1NC(=O)C1=CC(c2ccc3c(c2)OCO3)=NS(=O)(=O)N1C | inactive: -16.6% | 
COc1ccccc1C(=O)CC1(O)C(=O)N(CC(N)=O)c2ccccc21 (stereo unspecified) | inactive: 3.66% | 
CCOc1ccccc1NC(=O)Cn1c(=O)n(Cc2ccco2)c(=O)c2cccnc21 | inactive: -11% | 
CC(C)(C)OC(=O)N1CCC(c2c(C(=O)O)cnn2-c2ccc(F)cc2F)CC1 | inactive: 6.97% | 
Fc1ccc(-c2nnc(CN3CCN(c4ccccn4)CC3)o2)cc1 | inactive: -11.6% | 
CCc1ccccc1N(C)C(=O)c1cc2c(s1)-c1c(C)cccc1OC2 | inactive: -15.8% | 
Cc1ccc(Cn2c(C)c(CNCc3ccccc3F)c(C(=O)O)c2C)cc1 | inactive: -12.4% | 
O=C(Cn1ncc2c3ccccc3n(Cc3ccccc3)c2c1=O)NCc1ccccc1 | inactive: 17.9% | 
COc1cc(C2C(C(=O)Nc3ccccc3)=C(C)Nc3nc(SCC(=O)c4ccc(C)cc4)nn32)ccc1O (stereo unspecified) | inactive: 9.76% | 
CCC[C@H](N[C@@H](C)C(=O)N1[C@H](C(=O)O)C[C@@H]2CCCC[C@@H]21)C(=O)OCC | inactive: 8.76% | 
CCc1ccc(S(=O)(=O)c2nnn3c2nc(N2CCN(CC)CC2)c2sccc23)cc1 | inactive: 2.06% | 
Cc1ccc(NC(=O)CSc2nc3ccc(NC(=O)c4cccc(Cl)c4)cc3s2)c(C)c1 | inactive: -7.91% | 
COc1ccccc1C(=O)Nc1ccc(-c2nc3cc(C)cc(C)c3o2)cc1 | inactive: 6.21% | 
Cc1ccc(CN(Cc2cccn2-c2nnc(N3CCCC3=O)s2)C(=O)Nc2cc(C)cc(C)c2)cc1 | inactive: -34.1% | 
Cc1nc2sc(C)c(C)n2c(=O)c1S(=O)(=O)NCCc1ccc(Cl)cc1 | inactive: -7.29% | 
COc1cccc(CN2C(=O)C3(SCC(=O)N3c3ccc(F)cc3)c3ccccc32)c1 (stereo unspecified) | inactive: -40.3% | 
COc1ccc(-c2nc3c(c(SCC(=O)Nc4cc(C)cc(C)c4)n2)Cc2c(CO)cnc(C)c2O3)cc1 | inactive: 5.56% | 
Cc1ccc(CN(Cc2ccco2)C(=O)c2ccccc2Cl)o1 | inactive: -14.3% | 
O=C(NCc1cccc(Cl)c1)c1ccc2c(c1)nc1n2CCOC1 | inactive: 9.13% | 

SMILES | activity change, negative = inhibition | Potency
CC(=O)c1ccc(NC(=O)c2cn(C)c(=O)c3ccccc23)cc1 | inactive: 9.49% | 
O=C(NC1CC(=O)N(c2ccccc2)C1)c1cccs1 (stereo unspecified) | inactive: -20.5% | 
Cc1cccc(C(=O)Nc2nc3c(s2)CCCC3)c1 | inactive: -4.01% | 
CCOC(=O)N1CCc2c(sc3c2c(=O)n(CCc2ccccc2)c(=O)n3Cc2ccc(C)cc2C)C1 | inactive: -4.17% | 
COc1ccc(NS(=O)(=O)c2ccc(N)cc2)nn1 | inactive: 9.46% | 
COc1ccc(-c2nc(CCNC(=O)Cc3ccc(F)cc3)cs2)cc1 | inactive: -23.9% | 
Nc1ccc(C(=O)NCC(=O)O)cc1 | inactive: 1.15% | 
CSc1ccc(CCNC(=O)c2ccc3c(c2)nc2n3CCC(C)C2)cc1 (stereo unspecified) | inactive: 1.06% | 
CCOCCc1nn2c(=O)cc(COC(=O)c3ccccc3NC(=O)c3cccs3)nc2s1 | inactive: 0% | 
CCc1ccccc1NC(=O)N1CC(CC)Oc2ccc(Cl)cc21 (stereo unspecified) | inactive: -20.3% | 
COc1ccc(N2CCN(C(=O)c3c(C)nn(-c4ccc(F)cc4)c3-n3cccc3)CC2)cc1 | inactive: -22.5% | 
COc1ccc(NC(=O)CSc2nc3ccccc3n2CC(=O)NCc2ccc(F)cc2)cc1 | inactive: -26.3% | 
CCCCSCCCNC(=O)c1cn(CC)c2ccc(S(=O)(=O)N3CCOCC3)cc2c1=O | inactive: -6.79% | 
CCOc1ccc(NC(=O)CSc2nnc3c(C)cc4ccccc4n23)cc1 | inactive: 3.01% | 
Nc1ccc(S(=O)(=O)c2ccc(N)cc2)cc1 | inactive: 4.36% | 
COC(=O)c1ccccc1NC(=O)Cn1nc(C)c2nn(-c3ccc(Cl)cc3)c(C)c2c1=O | inactive: -15.7% | 
OC[C@H]1O[C@@H](Oc2ccc(O)cc2)[C@H](O)[C@@H](O)[C@@H]1O | inactive: 9.95% | 
COc1cc(NC(=O)Nc2nnc(N3CCCCC3)s2)cc(OC)c1 | inactive: -15.2% | 
CC1CCc2nc3ccc(S(=O)(=O)N4CCC(C(=O)NCc5ccccc5Cl)CC4)cc3c(C(=O)O)c2C1 (stereo unspecified) | inactive: -25.8% | 
Cc1nn(-c2ccccc2)c2c1N(CCCC(=O)NCc1ccc(OC(C)C)cc1)C(=O)CS2 |  | active: 14.1 µM
O=c1c2[nH]c3ccccc3c2nc(SCc2ccccc2F)n1-c1ccc(F)cc1 | inactive: -13.3% | 
Cc1ccccc1OCC(=O)Nc1ccc(OCc2cc(=O)n3ccccc3n2)cc1 | inactive: 10.7% | 
Cc1ccc(CNC(=O)c2ccc3oc(=O)n(Cc4ccccc4)c3c2)cc1 | inactive: -15.5% | 
COc1ccc(Cl)cc1NC(=O)C1CCCN(S(=O)(=O)c2ccc3c(c2)CCCC(=O)N3)C1 (stereo unspecified) | inactive: -16.7% | 

SMILES | activity change, negative = inhibition | Potency
O=C(CSc1nc2c(c(=O)[nH]1)CN(Cc1ccc3c(c1)OCO3)CC2)Nc1cc(F)ccc1F | inactive: -32.7% | 
CCCCOC(=O)c1ccc(NC(=O)C2(c3cccs3)CCOCC2)cc1 | inactive: -21.9% | 
COc1ccc(NC(=O)CSc2nc(-c3ccccc3)cc(-c3cc(OC)c(OC)c(OC)c3)c2C#N)c(OC)c1 | inactive: -5.52% | 
CC(=O)N1CCc2cc(CNS(=O)(=O)c3cccs3)ccc21 | inactive: 48.6% | 
COc1ccc(-c2nnc(SCC(=O)Nc3cccc(C)c3)s2)cc1 | inactive: -10.9% | 
CCOc1ccccc1N(C)C(=O)c1sc2nc3n(c(=O)c2c1C)CCCC3 | inactive: -5.76% | 
COc1ccc(NC(=O)CSc2nccn2C2CCCC2)cc1OC | inactive: -37.9% | 
Cc1nn(CC(=O)Nc2ccc(C(C)C)cc2)c(=O)c2c(C)n(-c3ccc(Cl)cc3)nc12 | inactive: -9.78% | 
Cc1ccc(Cn2cc(S(=O)(=O)c3ccccc3)c(=O)c3cc(F)c(N4CCOCC4)cc32)cc1 | inactive: -19.1% | 
Cn1ccc2cc(S(=O)(=O)N3CCN(C(=O)Nc4cccc(F)c4)CC3)ccc21 | inactive: -27.3% | 
COc1ccc(NC(=O)C(c2ccc(OC)cc2)N(C)C(=O)Cc2cccs2)cc1 (stereo unspecified) | inactive: -22.2% | 
CC(C)(Oc1ccc(Cl)cc1)C(=O)Nc1ccc(-c2nc3ncccc3o2)cc1 | inactive: -0.153% | 
COc1ccccc1N1CCN(S(=O)(=O)CCNC(=O)c2cc(=O)c3ccccc3o2)CC1 | inactive: -29.9% | 
COc1ccc2c(c1)c1c3n2CCN(C)C3=NCC1 | inactive: -3.98% | 
CN(C)CCc1c[nH]c2ccc(Cn3cncn3)cc12 | inactive: -8.45% | 
Cc1ccccc1C(=O)Nc1cccc(-c2nc3cccnc3s2)c1 | inactive: -13.4% | 
CC(C)C(C)(C)C(C)(C)C(C)(C)S | inactive: 9.65% [at 116 µM] | 
COc1ccc(Cn2ccc3nc(C)c(C(=O)Nc4ccc(OC)c(OC)c4)cc3c2=O)cc1 | inactive: -12.1% | 
COc1cccc(N2CCN(C(=O)CCn3nc(C)c(S(=O)(=O)N4CCCC4)c3C)CC2)c1 | inactive: -6.88% | 
O=C(CSc1nc(=O)n(Cc2ccncc2)c2c1CCC2)Nc1ccccc1 | inactive: 7.43% | 
CCCN(CCC)C(=O)c1c[nH]c2ccc(S(=O)(=O)N(C)c3ccc(Cl)cc3)cc2c1=O | inactive: -24.2% | 
O=c1c(S(=O)(=O)c2ccccc2)cn(Cc2ccc(F)cc2)c2cc(N3CCCC3)c(F)cc12 | inactive: -17.8% | 
COc1cccc(CNC(=O)C2CCC(CNS(=O)(=O)c3cccs3)CC2)c1 (stereo unspecified) | inactive: 5.62% | 
CCCC(=O)N(c1ccc2oc3c(c2c1)CCCC3)S(=O)(=O)c1ccc(CC)cc1 | inactive: -6.85% | 

SMILES | activity change, negative = inhibition | Potency
Cc1ccccc1NC(=O)c1ccc(NC(=O)N2CCSc3ncccc32)cc1 | inactive: -7.4% | 
COc1cccc(NC(=O)c2sc(-n3nc(C)c(Cc4ccccc4Cl)c3C)nc2C)c1 | inactive: -6.19% | 
CC1CCN(S(=O)(=O)c2ccc3c(c2)N(CC(=O)NCc2ccccc2Cl)C(=O)CO3)CC1 | inactive: -14.8% | 
COc1ccc(OC)c(-n2c(=O)[nH]c3cc(C(=O)NCCc4ccc(OC)c(OC)c4)ccc3c2=O)c1 | inactive: -13.3% | 
COc1ccc(NCc2nc3ccccc3n2CCOc2ccccc2C)cc1 | inactive: -18% | 
COc1ccc(C=Cc2cc(OC)c(OC)c(OC)c2)cc1NC(=O)[C@H](N)CO | inactive: -26% | 
COCCn1c(C)cc(O)c(C(c2ccccc2)N2CCN(c3ccc(F)cc3)CC2)c1=O (stereo unspecified) | inactive: -6.98% | 
Cc1ccc(N(C)C(=O)Cn2nc(Cc3ccncc3)c3ccccc3c2=O)cc1C | inactive: -1.57% | 
O=C(Nc1ccc(F)cc1)c1ccc(-n2cnc3cccnc32)cc1 | inactive: -10.4% | 
O=C(NCCc1ccc(Cl)cc1)c1ccc(CS(=O)(=O)Cc2ccc(F)cc2)o1 | inactive: -0.592% | 
COC(=O)c1c(SC)nc2ccccc2c1OCc1cccc(C)c1 | inactive: -16.4% | 
CCC(CC)C(=O)Nc1cccc(-c2nc3cccnc3s2)c1 | inactive: -5.62% | 
COc1cccc(COC(=O)c2nn(-c3ccccc3)nc2N)c1 | inactive: 4.01% | 
CNC(=O)C1CCC(Cn2c(=O)c3sccc3n(Cc3ccccc3)c2=O)CC1 (stereo unspecified) | inactive: -0.696% | 
COc1ccccc1CCNC(=O)c1cc2c(=O)n3cccc(C)c3nc2n1C | inactive: 31.9% | 
CCOc1ccc(-c2nc(Cn3c(=O)cc(-c4ccccc4)c4c(C)nn(C)c43)c(C)o2)cc1OC | inactive: 0% | 
Cc1ccc(CNC(=O)C2CCN(c3nn4cc(-c5ccc(F)cc5)nc4s3)CC2)cc1 | inactive: 16% | 
CCN(CC)c1ccc(NC(=O)CCS(=O)(=O)c2cccc3nsnc23)c(C)c1 | inactive: -4.08% | 
Cc1cc(S(=O)(=O)Nc2cc3c(cc2C)n(C)c(=O)c(=O)n3C)ccc1F | inactive: -16.4% | 
CCSC1=NC2(CCN(C(=O)NC3CCCCC3)CC2)N=C1c1ccc(C)cc1 | inactive: -14% [at 11.5 µM] | 
Cc1ccccc1NC(=O)CSc1ncc2c(n1)-c1ccccc1N(C)S2(=O)=O | inactive: -33.8% | 
Cc1cc(C)c2c(n1)nn1c(C)c(CCC(=O)Nc3ccc(C)c(Cl)c3)c(C)nc21 | inactive: -5.81% | 
Cc1cn2c(=O)cc(COC(=O)c3cccc(NC(=O)C(C)Oc4ccccc4)c3)nc2s1 (stereo unspecified) | inactive: -29% | 
CCOc1ccccc1NC(=O)c1c(NC(=O)C(C)Oc2cccc(Cl)c2)sc2c1CCCCC2 (stereo unspecified) | inactive: -11.5% | 
